Each structure is given as a SMILES string. Out of some 16,000 compounds screened, about 120 (0.75%) were called active. Roughly 4% stayed inconclusive and do not appear here. The call rests on the fitted dose curve; in most records, active means well fitted inhibition curve with a large enough effect; inconclusive means small, poorly fitted or top-dose-only effect; inactive means no such curve, though single readings can be large or run the other way. The list shows a part of the results.

UniProt O95398, sequence (O95398 whole entry, looked up): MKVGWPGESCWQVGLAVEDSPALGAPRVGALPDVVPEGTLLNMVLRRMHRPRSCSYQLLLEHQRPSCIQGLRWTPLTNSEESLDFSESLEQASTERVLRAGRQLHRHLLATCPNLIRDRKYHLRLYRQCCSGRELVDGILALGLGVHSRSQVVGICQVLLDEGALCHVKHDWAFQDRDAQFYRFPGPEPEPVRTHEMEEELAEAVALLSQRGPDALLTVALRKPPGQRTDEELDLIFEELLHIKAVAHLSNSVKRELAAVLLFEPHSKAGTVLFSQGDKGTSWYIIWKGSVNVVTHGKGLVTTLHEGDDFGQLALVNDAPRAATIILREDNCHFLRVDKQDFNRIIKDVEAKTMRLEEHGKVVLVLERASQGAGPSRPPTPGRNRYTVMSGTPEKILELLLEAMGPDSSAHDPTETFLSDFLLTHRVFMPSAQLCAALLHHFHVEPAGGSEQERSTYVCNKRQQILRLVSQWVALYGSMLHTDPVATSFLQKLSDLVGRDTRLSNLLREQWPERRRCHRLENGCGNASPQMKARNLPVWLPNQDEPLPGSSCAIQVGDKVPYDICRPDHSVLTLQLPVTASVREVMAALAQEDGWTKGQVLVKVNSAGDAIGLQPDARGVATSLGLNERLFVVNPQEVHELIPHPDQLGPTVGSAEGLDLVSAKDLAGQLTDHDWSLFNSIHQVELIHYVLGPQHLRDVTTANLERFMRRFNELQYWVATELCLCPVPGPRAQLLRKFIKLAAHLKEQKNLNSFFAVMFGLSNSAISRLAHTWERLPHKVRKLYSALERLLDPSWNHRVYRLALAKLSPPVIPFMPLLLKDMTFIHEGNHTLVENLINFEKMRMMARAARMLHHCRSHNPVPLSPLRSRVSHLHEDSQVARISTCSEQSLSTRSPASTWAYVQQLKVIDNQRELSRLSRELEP

The target in the test is Rap guanine nucleotide exchange factor 3 (Homo sapiens) (UniProt O95398). Kind of test: Validation qHTS for antagonist of cAMP-regulated guanine nucleotide exchange factor 3 (EPAC1). Further: nearly all actives have a fitted effect of over 75% in size. Particulars: EPAC1 Rap1B-BODIPY-GDP exchange, fluorescence; series mostly up to 150 µM; activity change, negative = inhibition: at the top concentration. The text has this:
Assay Provider (PI): Xiaodong Cheng Ph.D.
The University of Texas Medical Branch, […], TX
In multi-cellular eukaryotic organisms, the effects of cAMP are transduced by two ubiquitously-expressed intracellular cAMP receptors, the classic protein kinase A/cAMP-dependent protein kinase (PKA/cAPK) and the more recently discovered exchange protein directly activated by cAMP/cAMP-regulated guanine nucleotide exchange factor (EPAC/cAMP-GEF). Both PKA and EPAC are ubiquitously expressed in all tissues, and an increase in intracellular cAMP levels will lead to the activation of both PKA and EPAC. Therefore, careful dissections of the individual role and relative contribution of EPAC and PKA within the overall cAMP signaling in various model systems are critical for further elucidating the mechanism of cAMP signaling. To date no EPAC-specific antagonists and agonist, as well as isoform-specific agonists have been reported, and developing EPAC-specific pharmacological probes to determine the physiological functions that EPAC play in the overall cAMP-mediated signaling remains a major challenge within the research field. Furthermore, identified regulators of EPAC may lead to new mechanism-based therapeutic strategies specifically targeting the EPAC / cAMP-signaling components as EPAC has been implicated to play important roles in major human pathological conditions such as diabetes, heart disease, and cancer.
This qHTS will be used to screen the Molecular Libraries Small Molecule Repository (MLSMR) as a concentration-titration series using the NCGC unique quantitative screening (qHTS) platform to find activators for EPAC1. In addition, this assay will also be used as a counterscreen for the EPAC2 qHTS. This fluorescent based assay is developed and validated for EPAC1 that measures exchange using EPAC effector Rap1 complex with BODIPY-GDP, a GDP analog with a tethered fluorophores. Activators are identified by monitoring the change in fluorescence signal as the exchanged free BODIPY-GDP has a reduced fluorescence compared to Rap1-bound BODIPY-GDP. Increase in signal (activation) is the desired outcome for the EPAC1 agonist while no activity in this assay is desired for the EPAC2 agonist counterscreen.
[1] de Rooij, J., Zwartkruis, F. J., Verheijen, M. H., Cool, R. H., Nijman, S. M., Wittinghofer, A., and Bos, J.L. (1998) Nature 396, 474-477.
Briefly, three uL of reagents (100 nM EPAC1, 250 nM RAP1B-BODIPY-GDP, 50 uM GDP) were dispensed into a 1536-well Greiner black solid-bottom medium binding assay plate. Controls and test compounds (23 nL) were transferred to the plate via a Kalypsys pin tool equipped with a 1536-pin array. The plates were centrifuged at 1,000 rpm for 15 seconds followed by 5 minute incubation at room temperature. The assay plates were read at 5 minute intervals for 30 minutes in the ViewLux plate reader using 480nm excitation and 540nm emission filters. The results were normalized to the […] positive control ATA and DMSO.
As for `Cc1nc2cc(NC(=O)[C@@H]3C[C@@H](Sc4ccccn4)CN3Cc3ccccc3C)ccc2s1`, the “activity change, negative = inhibition” value was inactive: -8.2%. On to `CO[C@@]1(NC(=O)C2SC(=C(C(N)=O)C(=O)O)S2)C(=O)N2C(C(=O)O)=C(CSc3nnnn3C)CS[C@@H]21` (stereo not given in full), for which the “activity change, negative = inhibition” value is inactive: 18% [at 75.8 µM]. The figure for `CN(C)c1ncc2nc(-c3cc(F)cc(F)c3)c(=O)n(Cc3ccc(F)cc3)c2n1` is inactive: 8.11%. The result for `CN(C)CCCN1c2ccccc2CCc2ccc(Cl)cc21` reads “inactive”. The figure for `COc1ncccc1C(=O)N1CCOc2ccc(C(O)C(c3ccccc3)c3ccccc3)cc2C1` (stereo not given) is inactive: -4.68%; for `Cc1c(C)c2c(c(C)c1OC(=O)c1cccnc1)CC[C@@](C)(CCC[C@H](C)CCC[C@H](C)CCCC(C)C)O2` it is inactive: 13.9%; for `NC(=O)C1=CN(C2OC(COP(=O)(O)OP(=O)(O)OC[C@H]3O[C@@H](n4cnc5c(N)ncnc54)[C@H](OP(=O)(O)O)[C@@H]3O)C(O)C2O)C=CC1` (stereo not given in full) it is inactive: -0.935% [at 75.8 µM]. In the case of `NCCCCC(NC(CCc1ccccc1)C(=O)O)C(=O)N1CCCC1C(=O)O` (stereo not given), the “activity change, negative = inhibition” value is inactive: 7.78%. With `CCC(=O)O[C@H](CC(=O)O)C[N+](C)(C)C`, the “activity change, negative = inhibition” value is inactive: 1.34%. The result for `Cc1cc(OC(=O)c2c(C)cc(O)cc2O)cc(O)c1C(=O)O` reads “inactive”; that for `O=C(c1ccncc1)N1CCC2(CC1)CN(c1cccc(-c3ccccc3)c1)C2`, inactive: -7.45%. The result for `CCN(CC)CCOC(=O)C1(c2ccc([N+](=O)[O-])cc2)CCCC1` reads “inactive”; that for `Cc1c(C(=O)NC2CCCCCC2)sc2ncnc(NCC3CCCO3)c12` (stereo not given), inactive: 5.59%. The figure for `COc1ccc(CN2C[C@H](C)[C@@H](CC(=O)NCc3ccccc3)C2=O)cc1` is inactive: -0.0148%; for `CC1(C)C2CC[C@@]1(C)C(=O)C2` it is inactive: 9.77%.

With `C=C1C[C@]23CC[C@H]4C(CO)(CO)C[C@@H](O)C[C@@]4(C)[C@@H]2CC[C@H]1C3`, the “activity change, negative = inhibition” value is inactive: -15.5%. The figure for `Nc1ccc(O)c(C(=O)O)c1` is inactive: 0.11%; for `COc1ccc(Oc2ncc3nc(-c4ccc(F)cc4)c(=O)n(C)c3n2)cc1` it is inactive: 8.14%. The result for `O=c1[nH]c(=O)c2nc(Br)n(C3OC(CO)C(O)C3O)c2[nH]1` (stereo not given) reads inactive: 9.26%; that for `COc1ccc(NC(=O)N2CCCC3(CCN(C(=O)c4csnn4)CC3)C2)cc1`, inactive: 9.95%; that for `CNC(=O)[C@H]1O[C@@H](n2cnc3c(NCc4ccc(N)cc4)ncnc32)[C@H](O)[C@@H]1O`, “inactive”.

Take `O=c1cnc2cnc(N3CCNCC3)nc2n1Cc1ccc(F)cc1`: the “activity change, negative = inhibition” value was inactive: 1.6%. The result for `COc1ccccc1-c1ccnc(-n2ncc(C(=O)N3CCN(C(C)C)CC3)c2-c2ccco2)n1` reads inactive: 19.1%; that for `O=C(O)[C@H](O)[C@@H](O)[C@H](O)[C@H](O)CO`, “inactive”; that for `c1ccc(-c2csc(-c3nc4ccccc4[nH]3)n2)cc1`, inactive: -3.06%.

For `COC(=O)N1CCC[C@@]2(CCN(C(=O)NC(C)C)C2)C1`, the “activity change, negative = inhibition” value is inactive: 8.07%. As for `COc1cc2c(cc1O)CC[C@@H]1[C@@H]2CC[C@]2(C)[C@@H](O)CC[C@@H]12`, the “activity change, negative = inhibition” value is inactive: 5.56% [at 75.8 µM]. The result for `CC1(C)C(C=C(Cl)Cl)C1C(=O)OCc1cccc(Oc2ccccc2)c1` (stereo not given) reads inactive: -8.47%; that for `OC(c1ccc2c(c1)CN(Cc1cccn1-c1cccnc1)CCO2)C1CCCCC1` (stereo not given), inactive: -4.54%. The result for `O=C(c1csnn1)N1CCC2(CC1)CN(c1ncccn1)C2` reads inactive: -0.349%; that for `O=c1[nH]c(=O)n([C@@H]2O[C@H](CO)[C@@H](O)[C@H]2O)cc1F`, inactive: 12.5%; that for `COc1ccccc1CN1CC[C@@]2(CCCN(S(C)(=O)=O)C2)C1`, inactive: 15.9%. Regarding `COc1ccccc1CN1CC[C@@]2(CCCN(C(=O)c3ccncc3)C2)C1`, the “activity change, negative = inhibition” value is inactive: 4.58%.

Take `Cn1cccc1C(=O)N1CCC2(CC1)CN(c1ccccn1)C2`: the “activity change, negative = inhibition” value was inactive: 4.19%. The result for `CN(C)c1ncc2nc(-c3ccc(Cl)cc3)c(=O)n(C3CC3)c2n1` reads inactive: 10.2%; that for `CN(C)c1ccc(-c2nc(-n3ccnc3)c3ccccc3n2)cc1`, inactive: -11.1%. The figure for `CC(C)[C@@H]1[C@H]2CC[C@H](C2)[C@H]1N` is inactive: 13.7%. The result for `COC(=O)C1=C(C)NC(C)=C(C(=O)OC)C1c1ccccc1[N+](=O)[O-]` reads “inactive”; that for `CCCCCCCCCCCCCCCCCCOC[C@H](COP(=O)([O-])OCC[N+](C)(C)C)OC`, “inactive”.

Turning to `Cc1noc(C)c1-c1cncnc1Nc1ccccc1`, the “activity change, negative = inhibition” value is inactive: 10.1%.

`Cc1ccccc1-c1cc(N(C)Cc2ccco2)ncn1`: the “activity change, negative = inhibition” value is inactive: -14.5%. The result for `NC(=O)CC[C@@H]1NC(=O)[C@H](Cc2ccccc2)NC(=O)[C@H](Cc2ccc(O)cc2)NC(=O)[C@@H](N)CSSC[C@@H](C(=O)N2CCC[C@H]2C(=O)N[C@@H](CCCN=C(N)N)C(=O)NCC(N)=O)NC(=O)[C@H](CC(N)=O)NC1=O` reads “inactive”.

As to `COc1ccccc1C(=O)N[C@@H]1c2ccccc2C2(CCN(Cc3cccnc3)CC2)[C@H]1O`, the “activity change, negative = inhibition” value is inactive: 4.13%.

In the case of `CCCCCc1ccc(-c2cn(Cc3ccc4ccccc4c3)nn2)cc1`, the “activity change, negative = inhibition” value was inactive: 5.54%. The result for `CC(=O)Nc1cc(C(=O)N2CCSCC2)cc2ncn(CCc3ccccn3)c12` reads inactive: 11.1%. For the molecule `Cc1ncc2c(c1CNC(=O)c1ccc3c(c1)OCO3)CCN(C(=O)c1csc3c1CCCC3)C2`, the “activity change, negative = inhibition” value is inactive: 16.7%. The result for `C[C@@H]1CC(=O)NN=C1c1ccc(NN=C(C#N)C#N)cc1` reads inactive: 4.39%; that for `COc1c(C=O)c(=O)[nH]c2c(OC)cccc12`, inactive: 29.4%. On to `COc1ccc(-c2nc(C(=O)N3CCN(C)CC3)sc2-c2ccc(OC)cc2)cc1`, for which the “activity change, negative = inhibition” value was inactive: -28.9%. For the molecule `CC(=O)Nc1ccc(SC[C@H](Cc2ccccc2)N2CC[C@@H](N)CCC2=O)cc1`, the “activity change, negative = inhibition” value was inactive: -24.2%.
